Hit rate of the full screen: of about 46,000 compounds, about 60 (0.1%) were called active. About 3% were inconclusive and are not listed. Calls come from the whole dose curve; as a rule, active = well fitted inhibition curve with a large enough effect; inconclusive = small, poorly fitted or top-dose-only effect; inactive = no such curve, though single readings can be large or run the other way. This is one part of the list.
Test: Primary qHTS assay for Inhibitors of ovarian cancer metastasis using an organotypic tumor microenvironment (TME) model.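 For activity change, negative = inhibition: plate controls were DMSO wells for no effect and tomatine positive control wells for full effect.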 Note: nearly all actives have a fitted effect of over 65% in size.
Settings: SKOV3ip1-GFP adhesion/invasion on 3D omental model, fluorescence; series mostly up to 45.8 µM; activity change, negative = inhibition: at the top concentration
How it was run: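 A 3D layer of primary human omental fibroblasts, mesothelial cells, fibronectin and collagen I, grown 48 hr, received SKOV3ip1-GFP cells in serum-free medium plus compounds at 0.36-46 umol/L. After 2 hr RT and 16 hr 37 C, fixed adherent GFP cells were counted; normalized to DMSO and tomatine.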

Activity change, negative = inhibition, inactive:
CCSC1=NC2(CCN(C(=O)NC3CCCCC3)CC2)N=C1c1ccc(C)c(C)c1 -11.1%
Cc1cccc(CSCCNC(=O)CN(c2ccccc2)S(=O)(=O)N(C)C)c1 4.73%
Cc1cc2n(n1)CCCN2C(=O)Nc1cccc(C)c1C -14.3%
Cc1cccc(Nc2nc3ccccc3n3c(N)nnc23)c1 3.95%
COc1cccc(N2CCN(c3ncc4c(n3)CCN(Cc3ccc(Br)cc3)C4)CC2)c1 -3.33%
Cc1ccc(Cn2c(=O)c3cccnc3n(Cc3ccc(F)cc3)c2=O)cc1 -2.87%
CCOc1ccc(-n2c(SC(C)C(=O)OC)nc3c([nH]c4ccccc43)c2=O)cc1 (stereo not given) -3.23%
COc1ccc(Cl)cc1NC(=O)c1nc(S(C)(=O)=O)ncc1N(Cc1ccc(C)cc1)Cc1ccco1 6.8%
Cc1cc2oc(C(=O)Nc3ccc(S(=O)(=O)Nc4onc(C)c4C)cc3)cc(=O)c2cc1C -21.3%
COc1ccccc1CNC(=O)CCC1N=C2c3ccccc3N=C(SCC(=O)NCCc3ccccc3)N2C1=O (stereo not given) 3.72%
Cc1c(C(=O)N(C)C)sc2c1c(=O)n(-c1ccc(F)cc1)c(=O)n2CC(=O)N(C)c1ccccc1 1.97%
Cc1cccc(CNC(=O)c2ccc(Cn3c(SCc4ccccc4)nc4cccnc43)cc2)c1 -26.3%
CCc1ccc2oc(C(=O)Nc3nc(-c4ccccc4)ns3)c(C)c2c1 -9.93%
Cc1ccccc1C(=O)Nc1sc2c(c1C(=O)N1CCC(C)CC1)CCCC2 -4.45%
O=C(CSc1nc(=O)[nH]c2c1CCCC2)NCc1ccc(Cl)cc1 -2.44%
NC[C@H](O)c1ccc(O)c(O)c1 -2.82%
O=C(Nc1ccc(Oc2ccccc2)cc1)C1CCN(S(=O)(=O)c2ccccc2)CC1 0.841%
Cc1oc2ccc(O)c(CN3CCN(Cc4ccccc4)CC3)c2c1C(=O)Nc1cccc(Cl)c1C -3.74%
CCCN(C(=O)c1nn(-c2ccc(C)cc2)c(=O)c2c1c1ccccc1n2C)c1ccccc1C -2.94%
CC(=O)c1cc(-c2ccc(F)cc2)n(CCC(=O)NCc2ccc(C)cc2)c1C -5.88%
Cc1c(Cl)cccc1NC(=O)CN1C(=O)CSc2ccc(S(=O)(=O)N3CCCC3)cc21 -27.8%
CCOc1ccc(NC(=O)c2cnn3c(C(F)F)cc(-c4ccc(C)cc4)nc23)cc1 -17.3%
Cc1ccccc1CCNCc1c(C(=O)O)c(C)n(Cc2c(F)cccc2Cl)c1C -12.7%
CCc1ccc(Sc2cc(C(=O)NCCCN3CCCC(C)C3)c3ccccc3n2)cc1 (stereo not given) -10.8%
Clc1ccc(CN2CCc3nc(Nc4ccc5c(c4)OCCO5)ncc3C2)cc1 -2.54%
COc1ccccc1CNc1nc(-c2ccco2)nn1S(=O)(=O)c1ccc(C)cc1 5.92%
CCOc1ccccc1CN(CCc1ccc2c(c1)OCO2)Cc1cc(OC)c(OC)cc1OC -1.39%
CC(=O)Nc1ccc2nc(SCc3ccccc3)sc2c1 -25%
COC(=O)c1cc(Cl)ccc1NC(=O)Cn1c(C)cc(C)c(C#N)c1=O -7.42%
CC(C)NC(=O)c1nn(C)c2c1CS(=O)(=O)c1ccccc1-2 -0.412%
CCn1c(SCC(=O)Nc2cccc(Cl)c2)nnc1-c1nonc1NC(C)=O -0.246%
O=C(c1ccc(F)cc1)N1c2ncnn2C2(CCCCC2)[C@@H]2CCCC[C@@H]21 -12.7%
COc1ccc(CNC(=O)C(=O)NCC(c2cccs2)S(=O)(=O)c2ccc(C)cc2)cc1 (stereo not given) 1.57%
Cc1ccccc1C(=O)NCc1ccc2c(c1)CCN2C(=O)c1ccccc1 -9.77%
CCn1c(=O)c2sccc2n2c(CCCC(=O)N3CCN(c4ccccc4OC)CC3)nnc12 -8.55%
CC(CNC(=O)c1ccc(Cn2c(SCc3ccccc3)nc3cccnc32)cc1)c1ccccc1 (stereo not given) 22.8%
COc1ccc(CCNC(=O)Cn2nnc(-c3cccc(C(F)(F)F)c3)n2)cc1OC 5.49%
COc1ccc(CNC(=O)c2cc(Nc3ccc(OC)cc3OC)nc3ccccc23)cc1 -5.58%
CCOC(=O)c1ccc(NC(=O)c2ccc3c(c2)CCN3S(=O)(=O)c2ccc(Cl)cc2)cc1 -12.5%
COc1cc2[nH]c(=O)n(Cc3ccc(C(=O)N4CCN(c5cccc(C)c5C)CC4)cc3)c(=O)c2cc1OC -4%
Cc1cccc(NS(=O)(=O)c2nnc(NC(=O)C3CCCCC3)s2)c1 3.85%
CC(C)c1nn2c(=O)cc(COC(=O)c3ccc(NC(=O)c4ccccc4Cl)cc3)nc2s1 -12.1%
O=C(CSc1n[nH]c(-c2ccccc2Cl)n1)N1CCN(c2ccc(F)cc2)CC1 10.7%
Cc1ccc(C)c(CN2C(=O)c3ccccc3Sc3ccc(C(=O)NCCCOC(C)C)cc32)c1 2.17%
CCOc1ccc(NC(=O)c2oc3ccccc3c2NC(=O)Cc2ccc(OC)c(OC)c2)cc1 30.2%
O=C(Nc1ccc(O)c(-c2nc3ccccc3o2)c1)c1cccs1 5.82%
COc1ccc2oc(=O)cc(CN3CCN(C(=O)c4ccccc4)CC3)c2c1 -3.67%
COc1cc(OC)c(N(C)C(=O)c2cc3c(s2)-c2ccccc2OC3)cc1Cl -19%
COc1ccc2c(CNCc3cccs3)c(C(=O)O)n(Cc3ccccc3C)c2c1 5.55%
CCC(Sc1nc2ncccc2[nH]1)C(=O)Nc1ccccc1F (stereo not given) -4.06%
CC(C)(C)c1cc(C(C)(C)C)c(NC(=O)c2c[nH]c3ccccc3c2=O)cc1O -10.6%
CCC(=O)NCc1nc2ccccc2n1Cc1ccccc1 7.88%
COCCCNc1nc2c(-c3cccc(Br)c3)nnn2c2ccccc12 -2.63%
Cn1nc(-c2ccccc2F)c2cc(C(=O)N3CCN(c4ccccc4F)CC3)sc21 0.356%
CCOc1ccc(NC(=O)c2cc3nc(-c4ccc(OC)cc4)cc(C(F)(F)F)n3n2)cc1 3.42%
Cc1c(NC(=O)Cc2ccccc2)cccc1-c1nc2cccnc2s1 3.05%
CCOC(=O)c1c(C)[nH]c(C)c1S(=O)(=O)N1CCC(C(=O)NCc2ccc(OC)cc2)CC1 -2.27%
COC(=O)c1ccc2c(=O)n(CCCCCC(=O)N3CCN(c4cccc(C)c4C)CC3)c(=O)[nH]c2c1 2.06%
CC(C)NC[C@@H](C(=O)N1CCN(c2ncnc3c2[C@H](C)C[C@H]3O)CC1)c1ccc(Cl)cc1 21.4%
CCOc1cc(CNc2ccc(O)cc2)cc(Cl)c1OCc1ccccc1 -11.5%
Cc1ccc(S(=O)(=O)N2CCCc3cc(NC(=O)c4cccc(Cl)c4)ccc32)cc1 9.01%
Cn1cccc1-c1cc2n(n1)CCC(=O)N2CC(=O)Nc1ccc(F)cc1Cl 0.329%
CCCCOc1ccc(C(=O)Nc2ccc3c(c2)N(C(C)=O)CCC3)cc1 -1.8%
Cc1cccc(-c2cc(-c3ccccc3)nc(SCC(=O)Nc3ccccc3)c2C#N)c1 3.13%
CCS(=O)(=O)N1CCc2cc(C(=O)NCc3ccc(C)cc3)ccc21 2.55%
O=C(CSc1nc2c([nH]c3ccccc32)c(=O)n1-c1ccc(F)cc1)Nc1ccc2c(c1)OCCO2 2.7%
Cc1ccc(NC(=O)CC(c2ccc(F)cc2)N2Cc3ccccc3C2=O)cc1C (stereo not given) -2%
Cc1c(C(=O)NCc2ccc(Cl)cc2)sc2nc3n(c(=O)c12)CCC3 14.1%
CCOC(=O)N1CCN(CCC(=O)Nc2cccc(F)c2)CC1 11.3%
COCCNC(=O)CN1C(=O)CCn2nc(-c3cn(C)c4ccccc34)cc21 1.96%
COc1ccc(-c2nc3n(n2)C(c2ccccc2)C(C(=O)Nc2cccnc2)=C(C)N3)cc1 (stereo not given) 6.19%
COc1ccc2c(Sc3ccc(C)cc3)c(C(=O)NC(C)c3ccccc3)[nH]c2c1 (stereo not given) 27.9%
COc1cc([C@@H]2Nc3c(F)cccc3[C@@H]3C=CC[C@@H]32)cc(Br)c1OC 8.8%
Cc1c(C(=O)O)oc2c1-c1nn(Cc3ccccc3Cl)cc1CC2 2.99%

outcome, inactive:
Cc1ccc(S(=O)(=O)c2cn(CC(=O)Nc3ccc4c(c3)OCO4)c3ccc(F)cc3c2=O)cc1
Cc1ccc(OC(C)C(=O)NCC2(N3CCOCC3)CCCCC2)cc1C (stereo not given)
CCOC(=O)c1c(NC(=O)/C=C/c2ccc(OC)cc2)sc2c1CCC(C)C2 (stereo not given)
CCCCSCCCNC(=O)c1cc(-c2cccnc2)nc2ccc(S(=O)(=O)N3CCC(C)CC3)cc12
CCCCCCNc1ncnc2c1sc1nc(N3CCOCC3)c3c(c12)CCCC3
COc1ccc(NC(=O)Cn2c(=O)n(CC3CCCO3)c(=O)c3ccccc32)cc1 (stereo not given)
O=C(Nc1cccc(C(=O)N2CCN(c3ccc(F)cc3)CC2)c1)c1nsc2ccccc12
COc1ccccc1/C=C/c1nc(C#N)c(NC(C)c2ccccc2)o1 (stereo not given)
CC(=O)c1ccc(N2CCN(C(=O)Cn3ncc4c3-c3ccccc3OC4)CC2)cc1
Cc1ccc(-n2ncc(C(=O)N3CCN(C4CCCCC4)CC3)c2C2CCN(C(=O)OC(C)(C)C)CC2)cc1
O=c1cc(COc2cccc(C(F)(F)F)c2)nc2sc3c(n12)CCCC3
Cc1ccc(NC(=O)CN2CCN(C3CCCCC3)C(=O)C2=O)cc1
Cc1ccc(-c2nsc(NC(=O)c3oc4cc(C)c(Cl)cc4c3C)n2)cc1
CCOC(=O)N1CCC(NC(=O)c2cnn(-c3cccc(C)c3)c2C2CCN(C(=O)OC(C)(C)C)CC2)CC1
Cc1ccc(-n2nc(CO)c(C(=O)NCCO)n2)cc1
CCOC(=O)c1ccc(N2C(=O)c3n[nH]c(C)c3C2c2ccc(C(C)C)cc2)cc1 (stereo not given)
O=C(OCC1CCCO1)c1ccc2c(c1)N(Cc1ccc(F)cc1)C(=O)c1ccccc1S2(=O)=O (stereo not given)
Cc1ccc(Cl)cc1NC(=O)N1CCC(CN2CCc3ccccc3C2)CC1
Cc1ccc(S(=O)(=O)N(CC(O)Cn2c3ccccc3c3ccccc32)c2cccc(C(=O)NCCO)c2)cc1 (stereo not given)
CCC(Cn1nnc2ccccc2c1=O)NC(=O)Nc1ccccc1Cl (stereo not given)
CCc1ccccc1NC(=O)c1ccc(F)c(S(=O)(=O)N2CCN(c3ccccc3OC)CC2)c1
